Source: publication PMC4336329 (PLoS ONE, 2015)
Hit rate of the full screen: of about 310,000 compounds, about 2,200 (0.71%) showed an effect of 50% or more. Effects have a minus sign here. The list shows a part of the results.

The compounds below were run against human ether-à-go-go-related gene (hERG) potassium channel (human, UniProt Q12809) (assay: primary screen, population patch clamp on CHO cells stably expressing hERG).
Sequence of human ether-à-go-go-related gene (hERG) potassium channel (Q12809 whole entry, looked up): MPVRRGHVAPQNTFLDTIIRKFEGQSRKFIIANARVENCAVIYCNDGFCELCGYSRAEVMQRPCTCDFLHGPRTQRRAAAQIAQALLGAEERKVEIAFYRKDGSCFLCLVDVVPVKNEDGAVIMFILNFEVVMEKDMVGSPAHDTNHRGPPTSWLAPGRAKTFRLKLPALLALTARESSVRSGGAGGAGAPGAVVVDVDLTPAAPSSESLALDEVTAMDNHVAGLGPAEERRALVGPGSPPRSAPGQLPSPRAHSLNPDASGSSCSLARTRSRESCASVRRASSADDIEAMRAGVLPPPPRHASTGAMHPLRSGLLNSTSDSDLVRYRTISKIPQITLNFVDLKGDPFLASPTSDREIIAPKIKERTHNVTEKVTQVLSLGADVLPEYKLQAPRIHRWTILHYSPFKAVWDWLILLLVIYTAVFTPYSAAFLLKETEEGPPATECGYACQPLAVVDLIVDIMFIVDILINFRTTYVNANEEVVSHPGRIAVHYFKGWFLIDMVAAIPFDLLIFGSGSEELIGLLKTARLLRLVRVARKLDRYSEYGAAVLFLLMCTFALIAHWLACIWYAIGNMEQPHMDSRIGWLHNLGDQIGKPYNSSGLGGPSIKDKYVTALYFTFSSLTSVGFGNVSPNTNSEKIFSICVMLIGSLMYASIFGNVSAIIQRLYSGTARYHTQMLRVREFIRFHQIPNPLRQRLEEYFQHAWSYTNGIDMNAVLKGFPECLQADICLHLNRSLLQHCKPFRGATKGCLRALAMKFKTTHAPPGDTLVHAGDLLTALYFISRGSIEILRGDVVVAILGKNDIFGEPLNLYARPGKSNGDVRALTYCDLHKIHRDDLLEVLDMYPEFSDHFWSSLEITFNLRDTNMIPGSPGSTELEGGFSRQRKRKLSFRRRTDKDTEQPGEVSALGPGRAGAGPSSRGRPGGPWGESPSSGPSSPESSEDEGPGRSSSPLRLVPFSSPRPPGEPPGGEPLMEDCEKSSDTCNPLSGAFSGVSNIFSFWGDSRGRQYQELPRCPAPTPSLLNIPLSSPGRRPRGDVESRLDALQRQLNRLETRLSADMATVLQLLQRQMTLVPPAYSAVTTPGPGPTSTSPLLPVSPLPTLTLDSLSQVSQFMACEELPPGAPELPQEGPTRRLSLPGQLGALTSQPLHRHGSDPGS

Compound | hERG current change (%, negative = inhibition) at 1uM [%]
Cc1ccccc1-n1nc(-c2cccnc2)cc1C(=O)NN | 13.8
CCC(C)C(=O)Nc1nnc(SCC(=O)Nc2ccccc2F)s1 (stereo not drawn) | 11.3
COc1ccc(CC2(CO)CCN(Cc3cccc(OC)c3OC)CC2)cc1 | -17.3
Cc1ccc(Oc2cc(NC(=O)CCCn3nc(C)c([N+](=O)[O-])c3C)cc([N+](=O)[O-])c2)cc1 | 6.59
COc1ccc(NC(=O)CCN2CCN(S(=O)(=O)c3ccc(C(C)C)cc3)CC2)cc1 | -4.55
O=C1NC(=O)/C(=C\c2ccccc2Oc2ccc(F)c(F)c2)S1 | 9.61
N#CC1=C(Nc2ccc(Br)cc2)CCC1 | -15.3
CCN(CC)c1ccc(C(=O)OCC(=O)Nc2ccccc2-c2ccccc2)cc1 | 17.3
c1ccc(-c2nnc(SCc3nnc(-c4cccs4)o3)o2)cc1 | -7.09
CCC1CCCCN1CCCNC(=O)c1ccc2nc(N3CCC(C)CC3)sc2c1 (stereo not drawn) | -1.56
COCCCNC(=O)CC(NS(=O)(=O)c1ccc(F)cc1)c1ccc(OC)cc1 (stereo not drawn) | 3.35
Cc1ccc(-c2nc3ccccn3c2NCc2ccc3c(c2)OCO3)cc1 | -20.8
Brc1ccc(-c2nc3ncccn3c2Nc2ccc3c(c2)OCCO3)o1 | 8.93
CCCCC(=O)N/C(N)=N/c1nc2ccccc2o1 | 12
Cc1nc(NCc2ccccc2)[nH]c(=O)c1CCC(C)C | 17.5
COCc1cc(C)nc(SCc2ccc(Br)cc2)c1C#N | 9.75
Cc1ccn2c(CNC(C)CCn3cccn3)c(C(=O)N3CCCCCC3)nc2c1 (stereo not drawn) | -16.2
O=C(NCC1CCCO1)c1cc(NS(=O)(=O)c2cccs2)cc(NS(=O)(=O)c2cccs2)c1 (stereo not drawn) | 13.8
CCN(CC)CC(=O)Nc1sc2c(c1C(=O)c1ccccc1C)CCC2 | 10.4
CCN1CCN(C(c2cccs2)C(C)NS(=O)(=O)c2ccc(F)cc2)CC1 (stereo not drawn) | -5.31
COC(=O)c1ccccc1NC(=O)C1CCCN(c2nnc(-n3cccc3)s2)C1 (stereo not drawn) | -10.1
CCCCn1c(N)c(-c2nc3ccccc3s2)c2c([N+](=O)[O-])nn(C)c(=O)c21 | -3.71
Cc1cc(NC(=O)c2cccc3c2C(=O)N(C2CCCCC2)C3)ccc1Br | 16.3

Compound | hERG current change (%, negative = inhibition) at 1uM [%]
Cc1cc2ncc(Cl)nc2cc1C | 19.6
COC(=O)c1c(C)oc2ccc(N(C(=O)Oc3ccccc3)S(=O)(=O)c3ccccc3)cc12 | 8.21
CCOc1ccc(-c2[nH]nc3c2C(c2ccc4c(c2)OCO4)C(C#N)=C(N)O3)cc1OC (stereo not drawn) | 0.511
O=c1n(-c2ccccc2)c(=O)n2n1CCC2 | 3.4
CC1CCCCC1NC(=O)COC(=O)Cc1ccc(Br)cc1 (stereo not drawn) | 17.7
CCCCCCC(=O)Nc1ccc(S(=O)(=O)Nc2onc(C)c2C)cc1 | 16
CCOc1ccc(CNS(=O)(=O)c2cc(CN3C(=O)c4cccnc4C3=O)ccc2OC)cc1 | -2.04
Cc1cc(NCCOCCO)n2ncc(-c3ccc(Cl)cc3)c2n1 | 12.2
Cc1nn(Cc2ccc([N+](=O)[O-])cc2)c(=O)n1-c1ccccc1 | -8.13
O=C(NC1CCCC1)C(c1ccncc1)N(C(=O)c1csnn1)c1cccc(F)c1 (stereo not drawn) | 13.5
Cc1cc(C)nc(Nc2ncc(O)n2-c2ccc(C)c(Cl)c2)n1 | 14.2
CNC(=O)NC(=O)CSc1nc2ccccc2n1CCOC | 4.94
CCOC(=O)c1c(N)sc(C(=O)Nc2ccc3c(c2)OCO3)c1C | -3.27
Cc1ccc(C(=O)CSc2nnc(-c3ccco3)n2C)cc1 | 4.49
CCCCOc1ccccc1C1NC(=O)CCC1[N+](=O)[O-] (stereo not drawn) | 11.9
CCC1Sc2ccc(S(=O)(=O)CCC(=O)N3CCc4ccccc43)cc2NC1=O (stereo not drawn) | 3.13
COc1ccc(N2CCN(C(=O)[C@@H](NC(=O)c3ccccc3Cl)C(C)C)CC2)cc1 | 19.6
COc1cc(CNCc2ccccc2C(F)(F)F)cc(OC)c1.O=C(O)C(=O)O | 6.09
c1ccc(CN2CCN(c3nc4ccccc4s3)CC2)cc1 | 15.1
CCSCCc1nnc(NC(=O)Nc2cccc(C(F)(F)F)c2)s1 | 3.99
Cc1noc(C)c1/C=N/Nc1ccccn1 | 10.5
CN1/C(=C\C(=O)C[n+]2cccc(Br)c2)C(C)(C)c2ccccc21.[Cl-] | 3.92
